# This is one part of the list.
# B1: PX9937D-bvu-500-26-500 (Bacteroides vulgatus) (protein)
# chain: DPVSDITDLNYWKTPEQFDSFVFGLHSRFRSHSWNMFLLGEARSDVFGGIPFGGEATQGMERFPYNTLNAENPGISGFGDLYQNINQMNLFISRTLHTDVLTESARNYYLGQVYGLRAYYMYQLYRSWGDVVFTEEPSLGFEVGKLAKAATPAAEIFEQVKKDIESSLSYFGSDYTIKEKKSLWSKAATLMLKADVYLWSAHRDGGEGDARTAKNALVDIQNNISRSNLDLMDTYQGVFAYDNKGNKEIIFTIHNELFEYNLWNGNNDLFPQADYLGKFYNADGTLINTSVENNFGIMRLMVKLENFKKFLPGDTRRDVTLKDVYNKVENGKLELVGVYPHKYWGVMNGSTRVRCDDYPIYRYSDLLLMLAEAKVLLGEDPATEINRVRRRAFGDAYDASTVGFPNQEVDKRPADAVLQERLFEFMLEGKRWYDLRRFGDSYVLDYTPAEPARLLWPINQGALTNNPLLKQTVGY
# How the values were obtained:
# Experiment in all cases: glycan array binding signal (z-score within array); higher = stronger binding
# Settings in all cases: glycan notation: IUPAC condensed, linker removed
# [1] = target: GlcNAc(a1-4)Gal(b1-3)GlcNAc
# In short: (§1)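 Negative Z-scores can be read as non-binding. The Z-score is calculated within each array and then averaged across arrays of one protein sequence at different concentrations or buffers and across linkers. Arrays, 3228 in all, were curated from the Consortium for Functional Glycomics database and kept only where the protein sequence was available.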
# [2] = target: GlcNAc(a1-4)Gal(b1-4)GalNAc
# In short: as §1
# [3] = target: GlcNAc(a1-4)Gal(b1-4)GlcNAc
# In short: as §1
# [4] = target: GlcNAc(a1-4)Gal(b1-4)GlcNAc(b1-3)Gal(b1-4)Glc
# In short: as §1
# [5] = target: GlcNAc(a1-4)Gal(b1-4)GlcNAc(b1-3)Gal(b1-4)GlcNAc
# In short: as §1
# [6] = target: GlcNAc(a1-4)Gal(b1-4)GlcNAc(b1-3)Gal(b1-4)GlcNAc(b1-3)Gal(b1-4)GlcNAc
# In short: as §1
# [7] = target: GlcNAc(a1-4)Gal(b1-4)GlcNAc(b1-3)Gal(b1-4)[Fuc(a1-3)]GlcNAc(b1-3)Gal(b1-4)[Fuc(a1-3)]GlcNAc
# In short: as §1
# [8] = target: GlcNAc(a1-6)Gal(b1-4)GlcNAc
# In short: as §1
# [9] = target: GlcNAc(b1-2)Gal(b1-3)GalNAc
# In short: as §1
# [10] = target: GlcNAc(b1-2)Man(a1-3)[GlcNAc(b1-2)Man(a1-6)]Man(b1-4)GlcNAc(b1-4)GlcNAc
# In short: as §1
# [11] = target: GlcNAc(b1-2)Man(a1-3)[GlcNAc(b1-2)Man(a1-6)]Man(b1-4)GlcNAc(b1-4)[Fuc(a1-6)]GlcNAc
# In short: as §1
# [12] = target: GlcNAc(b1-2)Man(a1-3)[GlcNAc(b1-4)][GlcNAc(b1-2)Man(a1-6)]Man(b1-4)GlcNAc(b1-4)GlcNAc
# In short: as §1
# [13] = target: GlcNAc(b1-2)Man(a1-3)[GlcNAc(b1-4)][GlcNAc(b1-2)Man(a1-6)]Man(b1-4)GlcNAc(b1-4)[Fuc(a1-6)]GlcNAc
# In short: as §1
# [14] = target: GlcNAc(b1-2)[GlcNAc(b1-4)]Man(a1-3)[GlcNAc(b1-2)Man(a1-6)]Man(b1-4)GlcNAc(b1-4)GlcNAc
# In short: as §1
# [15] = target: GlcNAc(b1-2)[GlcNAc(b1-4)]Man(a1-3)[GlcNAc(b1-4)][GlcNAc(b1-2)Man(a1-6)]Man(b1-4)GlcNAc(b1-4)GlcNAc
# In short: as §1
# [16] = target: GlcNAc(b1-2)[GlcNAc(b1-4)]Man(a1-3)[GlcNAc(b1-4)][GlcNAc(b1-2)[GlcNAc(b1-6)]Man(a1-6)]Man(b1-4)GlcNAc(b1-4)GlcNAc
# In short: as §1
# [17] = target: GlcNAc(b1-2)[GlcNAc(b1-4)]Man(a1-3)[GlcNAc(b1-4)][GlcNAc(b1-2)[GlcNAc(b1-6)]Man(a1-6)]Man(b1-4)GlcNAc(b1-4)[Fuc(a1-6)]GlcNAc
# In short: as §1
# [18] = target: GlcNAc(b1-2)[GlcNAc(b1-6)]Man(a1-6)[GlcNAc(b1-2)Man(a1-3)]Man(b1-4)GlcNAc(b1-4)GlcNAc
# In short: as §1
# [19] = target: GlcNAc(b1-2)[GlcNAc(b1-6)]Man(a1-6)[GlcNAc(b1-2)Man(a1-3)]Man(b1-4)GlcNAc(b1-4)[Fuc(a1-6)]GlcNAc
# In short: as §1
# [20] = target: GlcNAc(b1-2)[GlcNAc(b1-6)]Man(a1-6)[GlcNAc(b1-4)][GlcNAc(b1-2)Man(a1-3)]Man(b1-4)GlcNAc(b1-4)GlcNAc
# In short: as §1
# GlcNAc(b1-3)Fuc = target: GlcNAc(b1-3)Fuc
# In short: as §1
# GlcNAc(b1-3)Gal = target: GlcNAc(b1-3)Gal
# In short: as §1
# [21] = target: GlcNAc(b1-3)Gal(b1-3)GalNAc
# In short: as §1
# GlcNAc(b1-3)Gal(b1-4)Glc = target: GlcNAc(b1-3)Gal(b1-4)Glc
# In short: as §1
# [22] = target: GlcNAc(b1-3)Gal(b1-4)GlcNAc
# In short: as §1
# [23] = target: GlcNAc(b1-3)Gal(b1-4)GlcNAc(b1-2)Man(a1-3)[GlcNAc(b1-3)Gal(b1-4)GlcNAc(b1-2)Man(a1-6)]Man(b1-4)GlcNAc(b1-4)GlcNAc
# In short: as §1
# [24] = target: GlcNAc(b1-3)Gal(b1-4)GlcNAc(b1-2)Man(a1-3)[GlcNAc(b1-3)Gal(b1-4)GlcNAc(b1-2)Man(a1-6)]Man(b1-4)GlcNAc(b1-4)[Fuc(a1-6)]GlcNAc
# In short: as §1
# [25] = target: GlcNAc(b1-3)Gal(b1-4)GlcNAc(b1-2)[GlcNAc(b1-3)Gal(b1-4)GlcNAc(b1-6)]Man(a1-6)[GlcNAc(b1-3)Gal(b1-4)GlcNAc(b1-2)Man(a1-3)]Man(b1-4)GlcNAc(b1-4)GlcNAc
# In short: as §1
# [26] = target: GlcNAc(b1-3)Gal(b1-4)GlcNAc(b1-3)Gal(b1-4)GlcNAc
# In short: as §1
# [27] = target: GlcNAc(b1-3)Gal(b1-4)GlcNAc(b1-3)Gal(b1-4)GlcNAc(b1-2)Man(a1-3)[GlcNAc(b1-3)Gal(b1-4)GlcNAc(b1-3)Gal(b1-4)GlcNAc(b1-2)Man(a1-6)]Man(b1-4)GlcNAc(b1-4)GlcNAc
# In short: as §1
# [28] = target: GlcNAc(b1-3)Gal(b1-4)GlcNAc(b1-3)Gal(b1-4)GlcNAc(b1-2)Man(a1-3)[GlcNAc(b1-3)Gal(b1-4)GlcNAc(b1-3)Gal(b1-4)GlcNAc(b1-2)Man(a1-6)]Man(b1-4)GlcNAc(b1-4)[Fuc(a1-6)]GlcNAc
# In short: as §1
# [29] = target: GlcNAc(b1-3)Gal(b1-4)GlcNAc(b1-3)Gal(b1-4)GlcNAc(b1-2)[GlcNAc(b1-3)Gal(b1-4)GlcNAc(b1-3)Gal(b1-4)GlcNAc(b1-6)]Man(a1-6)[GlcNAc(b1-3)Gal(b1-4)GlcNAc(b1-3)Gal(b1-4)GlcNAc(b1-2)Man(a1-3)]Man(b1-4)GlcNAc(b1-4)[Fuc(a1-6)]GlcNAc
# In short: as §1
# [30] = target: GlcNAc(b1-3)Gal(b1-4)GlcNAc(b1-3)Gal(b1-4)GlcNAc(b1-3)Gal(b1-4)GlcNAc(b1-2)Man(a1-3)[GlcNAc(b1-3)Gal(b1-4)GlcNAc(b1-3)Gal(b1-4)GlcNAc(b1-3)Gal(b1-4)GlcNAc(b1-2)Man(a1-6)]Man(b1-4)GlcNAc(b1-4)GlcNAc
# In short: as §1
# [31] = target: GlcNAc(b1-3)Gal(b1-4)GlcNAc(b1-3)Gal(b1-4)GlcNAc(b1-3)Gal(b1-4)GlcNAc(b1-2)Man(a1-3)[GlcNAc(b1-3)Gal(b1-4)GlcNAc(b1-3)Gal(b1-4)GlcNAc(b1-3)Gal(b1-4)GlcNAc(b1-2)Man(a1-6)]Man(b1-4)GlcNAc(b1-4)[Fuc(a1-6)]GlcNAc
# In short: as §1
# [32] = target: GlcNAc(b1-3)Gal(b1-4)GlcNAc(b1-3)Gal(b1-4)GlcNAc(b1-3)Gal(b1-4)GlcNAc(b1-2)[GlcNAc(b1-3)Gal(b1-4)GlcNAc(b1-3)Gal(b1-4)GlcNAc(b1-3)Gal(b1-4)GlcNAc(b1-6)]Man(a1-6)[GlcNAc(b1-3)Gal(b1-4)GlcNAc(b1-3)Gal(b1-4)GlcNAc(b1-3)Gal(b1-4)GlcNAc(b1-2)Man(a1-3)]Man(b1-4)GlcNAc(b1-4)[Fuc(a1-6)]GlcNAc
# In short: as §1
# [33] = target: GlcNAc(b1-3)Gal(b1-4)GlcNAc(b1-3)Gal(b1-4)GlcNAc(b1-3)Gal(b1-4)GlcNAc(b1-3)Gal(b1-4)GlcNAc(b1-2)Man(a1-3)[GlcNAc(b1-3)Gal(b1-4)GlcNAc(b1-3)Gal(b1-4)GlcNAc(b1-3)Gal(b1-4)GlcNAc(b1-3)Gal(b1-4)GlcNAc(b1-2)Man(a1-6)]Man(b1-4)GlcNAc(b1-4)GlcNAc
# In short: as §1
# [34] = target: GlcNAc(b1-3)Gal(b1-4)GlcNAc(b1-3)Gal(b1-4)GlcNAc(b1-3)Gal(b1-4)GlcNAc(b1-3)Gal(b1-4)GlcNAc(b1-2)Man(a1-3)[GlcNAc(b1-3)Gal(b1-4)GlcNAc(b1-3)Gal(b1-4)GlcNAc(b1-3)Gal(b1-4)GlcNAc(b1-3)Gal(b1-4)GlcNAc(b1-2)Man(a1-6)]Man(b1-4)GlcNAc(b1-4)[Fuc(a1-6)]GlcNAc
# In short: as §1
# [35] = target: GlcNAc(b1-3)Gal(b1-4)GlcNAc(b1-3)Gal(b1-4)GlcNAc(b1-3)Gal(b1-4)GlcNAc(b1-3)Gal(b1-4)GlcNAc(b1-2)[GlcNAc(b1-3)Gal(b1-4)GlcNAc(b1-3)Gal(b1-4)GlcNAc(b1-3)Gal(b1-4)GlcNAc(b1-3)Gal(b1-4)GlcNAc(b1-6)]Man(a1-6)[GlcNAc(b1-3)Gal(b1-4)GlcNAc(b1-3)Gal(b1-4)GlcNAc(b1-3)Gal(b1-4)GlcNAc(b1-3)Gal(b1-4)GlcNAc(b1-2)Man(a1-3)]Man(b1-4)GlcNAc(b1-4)[Fuc(a1-6)]GlcNAc
# In short: as §1
binder,measurement,setting,value
B1,glycan array binding signal (z-score),[1],-0.056
same,glycan array binding signal (z-score),[2],-0.411
same,glycan array binding signal (z-score),[3],-0.365
same,glycan array binding signal (z-score),[4],-0.605
same,glycan array binding signal (z-score),[5],-0.505
same,glycan array binding signal (z-score),[6],-0.141
same,glycan array binding signal (z-score),[7],-0.405
same,glycan array binding signal (z-score),[8],-0.242
same,glycan array binding signal (z-score),[9],-0.374
same,glycan array binding signal (z-score),[10],-0.215
same,glycan array binding signal (z-score),[11],-0.178
same,glycan array binding signal (z-score),[12],0.281
same,glycan array binding signal (z-score),[13],-0.382
same,glycan array binding signal (z-score),[14],-0.032
same,glycan array binding signal (z-score),[15],-0.541
same,glycan array binding signal (z-score),[16],-0.123
same,glycan array binding signal (z-score),[17],-0.277
same,glycan array binding signal (z-score),[18],0.163
same,glycan array binding signal (z-score),[19],-0.475
same,glycan array binding signal (z-score),[20],-0.588
same,glycan array binding signal (z-score),GlcNAc(b1-3)Fuc,-0.441
same,glycan array binding signal (z-score),GlcNAc(b1-3)Gal,-0.181
same,glycan array binding signal (z-score),[21],-0.22
same,glycan array binding signal (z-score),GlcNAc(b1-3)Gal(b1-4)Glc,-0.124
same,glycan array binding signal (z-score),[22],-0.346
same,glycan array binding signal (z-score),[23],-0.442
same,glycan array binding signal (z-score),[24],0.076
same,glycan array binding signal (z-score),[25],0.423
same,glycan array binding signal (z-score),[26],-0.558
same,glycan array binding signal (z-score),[27],0.434
same,glycan array binding signal (z-score),[28],0.256
same,glycan array binding signal (z-score),[29],0.138
same,glycan array binding signal (z-score),[30],-0.173
same,glycan array binding signal (z-score),[31],0.12
same,glycan array binding signal (z-score),[32],0.224
same,glycan array binding signal (z-score),[33],0.126
same,glycan array binding signal (z-score),[34],-0.298
same,glycan array binding signal (z-score),[35],1

# Source: the supplement of paper PMC8728848
